Results: paper PMC6362812
No constants are given. Whether binding was seen depends on the method and setting. For some assays here: In cells and extracts the contact can be indirect. Some results given as binding are weak or reduced against the parent protein; the word gives no strength. Where a sequence is shown, tags or fusion partners need not be part of it.

The chains behind the UniProt entries cited, without tags or fusion partners.
UniProt Q92600: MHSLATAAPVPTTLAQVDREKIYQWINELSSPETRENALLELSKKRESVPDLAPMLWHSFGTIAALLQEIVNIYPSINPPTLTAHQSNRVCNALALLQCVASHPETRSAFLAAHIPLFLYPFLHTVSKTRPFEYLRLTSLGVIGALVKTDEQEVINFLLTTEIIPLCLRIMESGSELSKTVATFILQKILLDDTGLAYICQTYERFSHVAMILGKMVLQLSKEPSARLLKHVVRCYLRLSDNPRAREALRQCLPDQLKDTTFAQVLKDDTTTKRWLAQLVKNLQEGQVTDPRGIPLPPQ
UniProt A5YKK6: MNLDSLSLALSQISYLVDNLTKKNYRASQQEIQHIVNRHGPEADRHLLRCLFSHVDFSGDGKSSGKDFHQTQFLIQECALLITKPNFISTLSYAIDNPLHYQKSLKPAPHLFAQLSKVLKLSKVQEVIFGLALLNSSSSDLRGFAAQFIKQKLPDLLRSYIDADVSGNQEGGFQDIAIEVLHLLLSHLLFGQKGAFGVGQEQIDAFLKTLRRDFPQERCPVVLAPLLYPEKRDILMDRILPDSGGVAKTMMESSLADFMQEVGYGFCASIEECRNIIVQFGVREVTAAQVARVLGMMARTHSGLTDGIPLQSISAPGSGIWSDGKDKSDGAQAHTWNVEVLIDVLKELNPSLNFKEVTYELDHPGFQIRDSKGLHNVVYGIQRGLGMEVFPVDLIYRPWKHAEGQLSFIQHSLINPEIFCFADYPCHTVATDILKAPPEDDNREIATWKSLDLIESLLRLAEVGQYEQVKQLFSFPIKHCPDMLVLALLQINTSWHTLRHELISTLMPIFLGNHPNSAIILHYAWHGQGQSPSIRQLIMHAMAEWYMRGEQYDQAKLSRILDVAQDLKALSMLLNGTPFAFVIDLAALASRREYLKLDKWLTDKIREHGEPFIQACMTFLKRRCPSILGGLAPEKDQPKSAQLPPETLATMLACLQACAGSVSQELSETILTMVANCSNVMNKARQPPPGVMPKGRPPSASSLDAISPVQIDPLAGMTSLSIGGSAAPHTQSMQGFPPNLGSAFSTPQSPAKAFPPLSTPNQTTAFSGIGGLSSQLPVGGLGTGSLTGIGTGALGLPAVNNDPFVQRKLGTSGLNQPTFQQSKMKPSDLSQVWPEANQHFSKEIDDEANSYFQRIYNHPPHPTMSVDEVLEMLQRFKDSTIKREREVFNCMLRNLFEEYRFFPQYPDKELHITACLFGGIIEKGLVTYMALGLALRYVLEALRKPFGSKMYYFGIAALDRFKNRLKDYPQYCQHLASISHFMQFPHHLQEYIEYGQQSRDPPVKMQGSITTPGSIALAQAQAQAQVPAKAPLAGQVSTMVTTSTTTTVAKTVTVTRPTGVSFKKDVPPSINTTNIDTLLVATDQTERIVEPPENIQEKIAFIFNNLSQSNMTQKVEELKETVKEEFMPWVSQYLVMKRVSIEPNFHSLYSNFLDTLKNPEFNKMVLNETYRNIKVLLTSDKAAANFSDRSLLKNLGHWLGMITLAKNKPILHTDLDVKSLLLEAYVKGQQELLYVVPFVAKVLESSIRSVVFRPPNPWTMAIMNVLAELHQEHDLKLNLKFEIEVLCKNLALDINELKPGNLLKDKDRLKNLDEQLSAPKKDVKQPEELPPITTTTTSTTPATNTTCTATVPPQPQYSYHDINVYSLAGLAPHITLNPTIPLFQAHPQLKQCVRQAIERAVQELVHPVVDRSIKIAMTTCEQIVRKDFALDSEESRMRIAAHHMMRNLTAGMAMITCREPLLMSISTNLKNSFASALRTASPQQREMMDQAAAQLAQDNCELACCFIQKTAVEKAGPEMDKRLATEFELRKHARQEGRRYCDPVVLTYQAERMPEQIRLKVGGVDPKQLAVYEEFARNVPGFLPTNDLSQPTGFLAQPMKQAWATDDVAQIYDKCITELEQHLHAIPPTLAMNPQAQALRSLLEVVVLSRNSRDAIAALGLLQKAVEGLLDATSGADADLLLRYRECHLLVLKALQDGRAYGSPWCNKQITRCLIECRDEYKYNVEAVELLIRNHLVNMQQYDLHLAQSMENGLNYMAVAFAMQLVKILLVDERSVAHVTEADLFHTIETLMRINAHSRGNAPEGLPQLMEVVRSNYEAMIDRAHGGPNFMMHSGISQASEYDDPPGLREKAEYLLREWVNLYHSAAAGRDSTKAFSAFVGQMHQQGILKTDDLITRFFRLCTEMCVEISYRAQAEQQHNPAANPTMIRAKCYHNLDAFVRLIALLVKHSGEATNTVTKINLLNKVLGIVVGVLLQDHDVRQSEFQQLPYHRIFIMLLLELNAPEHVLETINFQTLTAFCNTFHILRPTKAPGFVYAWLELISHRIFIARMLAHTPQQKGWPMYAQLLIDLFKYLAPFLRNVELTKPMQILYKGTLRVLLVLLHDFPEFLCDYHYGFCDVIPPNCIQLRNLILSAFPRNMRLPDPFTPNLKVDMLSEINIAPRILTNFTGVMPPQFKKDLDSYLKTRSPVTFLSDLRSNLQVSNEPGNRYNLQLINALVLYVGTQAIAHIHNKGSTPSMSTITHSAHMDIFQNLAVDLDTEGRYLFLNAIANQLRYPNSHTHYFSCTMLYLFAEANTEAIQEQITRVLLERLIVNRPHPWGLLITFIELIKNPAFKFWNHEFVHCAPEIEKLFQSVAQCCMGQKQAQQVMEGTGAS
UniProt Q9NZN8: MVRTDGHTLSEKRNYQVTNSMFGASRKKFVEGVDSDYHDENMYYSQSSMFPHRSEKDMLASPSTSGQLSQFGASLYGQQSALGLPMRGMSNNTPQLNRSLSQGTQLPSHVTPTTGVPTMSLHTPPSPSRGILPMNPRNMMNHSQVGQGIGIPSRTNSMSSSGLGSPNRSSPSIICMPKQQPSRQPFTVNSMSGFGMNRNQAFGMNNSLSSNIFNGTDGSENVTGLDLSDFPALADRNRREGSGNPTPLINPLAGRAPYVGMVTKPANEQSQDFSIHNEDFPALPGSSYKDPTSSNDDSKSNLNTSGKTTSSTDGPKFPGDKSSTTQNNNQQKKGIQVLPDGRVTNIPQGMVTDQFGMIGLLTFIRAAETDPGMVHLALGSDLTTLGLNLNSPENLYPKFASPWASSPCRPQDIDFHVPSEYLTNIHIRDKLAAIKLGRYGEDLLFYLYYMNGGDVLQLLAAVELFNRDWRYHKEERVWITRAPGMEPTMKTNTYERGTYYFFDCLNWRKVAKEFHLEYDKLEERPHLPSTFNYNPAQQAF
UniProt O75175: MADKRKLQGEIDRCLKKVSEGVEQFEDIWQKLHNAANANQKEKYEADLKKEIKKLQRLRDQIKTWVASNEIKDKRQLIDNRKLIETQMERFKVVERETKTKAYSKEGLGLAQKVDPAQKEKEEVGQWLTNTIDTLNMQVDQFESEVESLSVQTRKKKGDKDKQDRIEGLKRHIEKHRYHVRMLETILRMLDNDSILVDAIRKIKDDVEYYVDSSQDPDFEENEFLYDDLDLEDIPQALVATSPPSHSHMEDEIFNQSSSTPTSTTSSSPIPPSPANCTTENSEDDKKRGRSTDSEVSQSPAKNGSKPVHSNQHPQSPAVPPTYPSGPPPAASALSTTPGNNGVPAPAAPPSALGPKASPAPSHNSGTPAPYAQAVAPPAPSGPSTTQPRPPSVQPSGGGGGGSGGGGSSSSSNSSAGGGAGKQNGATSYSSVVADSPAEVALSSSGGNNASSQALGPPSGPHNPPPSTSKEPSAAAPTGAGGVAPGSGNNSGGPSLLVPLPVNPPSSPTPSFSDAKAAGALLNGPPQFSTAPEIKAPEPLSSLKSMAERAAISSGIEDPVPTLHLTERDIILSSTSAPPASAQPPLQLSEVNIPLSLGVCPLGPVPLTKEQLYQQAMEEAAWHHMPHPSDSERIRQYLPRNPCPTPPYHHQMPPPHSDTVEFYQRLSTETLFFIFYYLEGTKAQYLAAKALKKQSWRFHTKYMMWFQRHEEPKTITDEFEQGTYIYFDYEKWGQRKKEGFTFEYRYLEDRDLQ

Legend:
[1] = target: T1, MBP-tagged Hs NOT4 (full length, bacterially expressed) (human) (UniProt O95628); test: pull-down; MBP pull-down: MBP-tagged Hs NOT4 or fragments (isolated on Ni-NTA) immobilised on amylose resin, excess of purified CCR4–NOT proteins, 1 h, 50 mM Na/HEPES pH 7.5, 300 mM NaCl, 2 mM β-mercaptoethanol; maltose elution, SDS-PAGE, Coomassie; both purified
T1 sequence: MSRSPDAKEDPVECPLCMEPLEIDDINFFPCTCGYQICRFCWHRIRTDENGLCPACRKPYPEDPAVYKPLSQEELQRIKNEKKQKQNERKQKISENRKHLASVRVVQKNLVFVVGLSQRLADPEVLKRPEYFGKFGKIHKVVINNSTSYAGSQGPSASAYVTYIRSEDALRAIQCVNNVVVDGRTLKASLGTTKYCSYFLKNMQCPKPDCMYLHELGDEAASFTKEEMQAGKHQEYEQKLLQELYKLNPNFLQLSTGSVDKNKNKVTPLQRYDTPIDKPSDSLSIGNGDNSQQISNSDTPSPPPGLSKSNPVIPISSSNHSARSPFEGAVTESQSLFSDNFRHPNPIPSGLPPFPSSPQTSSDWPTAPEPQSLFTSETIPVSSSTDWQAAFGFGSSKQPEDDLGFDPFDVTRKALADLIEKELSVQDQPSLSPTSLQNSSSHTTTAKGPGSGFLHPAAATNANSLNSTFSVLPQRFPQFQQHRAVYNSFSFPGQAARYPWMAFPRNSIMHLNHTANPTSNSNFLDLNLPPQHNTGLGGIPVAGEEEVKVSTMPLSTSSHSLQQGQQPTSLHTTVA

[2] = target: T2, MBP-tagged Hs NOT4-C (bacterially expressed) (human) (UniProt O95628); test: as above
T2 sequence: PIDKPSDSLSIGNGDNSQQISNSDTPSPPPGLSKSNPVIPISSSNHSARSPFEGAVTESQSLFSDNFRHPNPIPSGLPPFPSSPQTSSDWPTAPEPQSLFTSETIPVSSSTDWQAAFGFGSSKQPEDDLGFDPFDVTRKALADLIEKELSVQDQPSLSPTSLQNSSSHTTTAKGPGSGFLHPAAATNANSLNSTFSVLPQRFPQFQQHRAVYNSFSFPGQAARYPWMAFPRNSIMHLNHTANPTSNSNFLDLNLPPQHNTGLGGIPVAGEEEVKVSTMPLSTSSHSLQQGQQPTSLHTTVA

[3] = target: T3, MBP-tagged Hs NOT4 C3 region (human) (UniProt O95628); test: as above
T3 sequence: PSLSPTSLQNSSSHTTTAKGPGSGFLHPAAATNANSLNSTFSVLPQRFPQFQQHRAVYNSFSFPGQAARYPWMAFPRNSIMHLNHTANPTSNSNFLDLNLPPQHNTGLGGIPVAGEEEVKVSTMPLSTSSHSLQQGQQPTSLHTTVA

[4] = target: T4, MBP-tagged Hs NOT4 C1 region (human) (UniProt O95628); test: as above
T4 sequence: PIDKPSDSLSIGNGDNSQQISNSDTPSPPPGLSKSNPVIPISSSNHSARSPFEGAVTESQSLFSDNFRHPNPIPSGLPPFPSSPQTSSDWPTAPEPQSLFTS

[5] = target: T5, MBP-tagged Hs NOT4 C2 region (human) (UniProt O95628); test: as above
T5 sequence: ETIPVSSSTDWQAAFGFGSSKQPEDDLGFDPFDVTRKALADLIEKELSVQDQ

[6] = target: T6, V5-SBP-MBP-tagged Hs NOT4-C ΔC2 (human) (UniProt O95628); test: pull-down; SBP pull-down: V5-SBP-MBP-tagged Hs NOT4 constructs expressed in HEK293T, RNase A-treated cleared lysate in NET buffer (50 mM Tris/Cl pH 7.5, 150 mM NaCl, 0.1% Triton X-100, 1 mM EDTA, 10% glycerol), 1 h at 4°C on streptavidin sepharose; endogenous proteins detected by Western blot
T6 sequence: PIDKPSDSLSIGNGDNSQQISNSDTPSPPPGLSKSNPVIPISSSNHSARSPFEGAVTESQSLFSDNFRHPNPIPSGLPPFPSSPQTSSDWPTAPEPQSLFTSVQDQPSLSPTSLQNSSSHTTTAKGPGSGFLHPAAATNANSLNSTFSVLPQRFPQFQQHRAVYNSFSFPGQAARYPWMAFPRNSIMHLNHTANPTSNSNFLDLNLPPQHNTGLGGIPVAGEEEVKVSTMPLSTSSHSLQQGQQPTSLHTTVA

[7] = target: T7, V5-SBP-MBP-tagged Hs NOT4-C (human) (UniProt O95628); test: as above
T7 sequence: T2 sequence

[8] = target: T8, V5-SBP-MBP-tagged Hs NOT4-C ΔC2b (human) (UniProt O95628); test: as above
T8 sequence: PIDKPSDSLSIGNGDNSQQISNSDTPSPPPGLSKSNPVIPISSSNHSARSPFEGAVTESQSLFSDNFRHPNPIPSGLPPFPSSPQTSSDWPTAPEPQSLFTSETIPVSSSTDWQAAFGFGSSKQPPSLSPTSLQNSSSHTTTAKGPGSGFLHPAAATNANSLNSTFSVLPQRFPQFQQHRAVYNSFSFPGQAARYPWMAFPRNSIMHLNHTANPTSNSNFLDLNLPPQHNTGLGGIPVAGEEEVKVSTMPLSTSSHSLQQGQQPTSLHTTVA

Substance	binding [1]	binding [2]	binding [3]	binding [4]	binding [5]	binding [6]	binding [7]	binding [8]
Hs CAF40 (purified recombinant, used in MBP pull-downs) (from UniProt Q92600 1-299)	binds	binds	no binding	no binding	binds	–	–	–
endogenous CAF40 (HEK293T) (from UniProt Q92600 1-299)	–	–	–	–	–	no binding	binds	no binding
endogenous NOT1 (HEK293T) (from UniProt A5YKK6 1-2376)	–	–	–	–	–	no binding	binds	no binding
endogenous NOT2 (HEK293T) (from UniProt Q9NZN8 1-540)	–	–	–	–	–	no binding	binds	no binding
endogenous NOT3 (HEK293T) (from UniProt O75175 1-753)	–	–	–	–	–	no binding	binds	no binding
